The supplement of paper PMC4967469

Legend:
Assay in all cases: Viability of human cancer cell lines after 72 h of drug (GDSC screen)
[1] = compound: COc1cccc2cc(-c3nc([C@H]4CC[C@H](C(=O)O)CC4)n4ncnc(N)c34)[nH]c12 [OSI-027]; settings: top dose 20 µM
Experimental: (§1)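 Human cancer cell lines in 384-well plates, medium with 10% serum, drug for 72 h over a 256-fold dose range (nine 2-fold or five 4-fold steps up to the top dose). Adherent lines were fixed and stained with the nucleic acid dye Syto60, suspension lines read with resazurin; signal relative to control wells, capped at 0 and 100%. One two-parameter sigmoid per drug and line, fitted in a mixed model over all curves with the slope shared within a line.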

[2] = compound: O=C(c1ccc(C(=O)N2CCC(N3CCCC3)CC2)c(Nc2ccccc2)c1)N1CCC(N2CCCC2)CC1 [UNC1215]; settings: top dose 1 µM; top dose inferred
Experimental: as §1

[3] = compound: Cc1cnc(Nc2ccc(OCCN3CCCC3)cc2)nc1Nc1cccc(S(=O)(=O)NC(C)(C)C)c1 [TG101348]; settings: top dose 10.24 µM
Experimental: as §1

[4] = compound: Cc1cnc(Nc2ccc(F)cc2Cl)nc1-c1c[nH]c(C(=O)N[C@H](CO)c2cccc(Cl)c2)c1 [VX-11e]; settings: top dose 5.12 µM; top dose inferred
Experimental: as §1

[5] = compound: CS(=O)(=O)c1ccc(C(=O)Nc2ccc(Cl)c(-c3ccccn3)c2)c(Cl)c1 [Vismodegib]; settings: top dose 10 µM; top dose inferred
Experimental: as §1

[6] = compound: CCc1cc(-c2n[nH]c(C)c2-c2ccc3c(c2)OCCO3)c(O)cc1O [CCT018159]; settings: top dose 10 µM; top dose inferred
Experimental: as §1

[7] = compound: COC(=O)CNC(=O)C(=O)OC [Dimethyloxalylglycine]; settings: top dose 4000 µM; top dose inferred
Experimental: as §1

[8] = compound: C=CC(=O)Nc1cc(-n2c(=O)ccc3cnc4ccc(-c5ccc(NS(C)(=O)=O)cc5)cc4c32)ccc1C [BMX-IN-1 (QL-XII-61)]; settings: top dose 10 µM; top dose inferred
Experimental: as §1

[9] = compound: C=CCNC1=C2C[C@@H](C)C[C@H](OC)[C@H](O)[C@@H](C)/C=C(\C)[C@H](OC(N)=O)[C@@H](OC)/C=C\C=C(/C)C(=O)NC(=CC1=O)C2=O [17-AAG]; settings: top dose 1 µM
Experimental: as §1

[10] = compound: CN(C)Cc1cccc(N=C(c2ccccc2)c2c(O)[nH]c3cc(C(=O)N(C)C)ccc23)c1 [BIX02189]; settings: top dose 20 µM; top dose inferred
Experimental: as §1

| Cell Line | AUC [1] | IC50 [1] [µM] | AUC [2] | IC50 [2] [µM] | AUC [3] | IC50 [3] [µM] | AUC [4] | IC50 [4] [µM] | AUC [5] | IC50 [5] [µM] | AUC [6] | IC50 [6] [µM] | AUC [7] | AUC [8] | IC50 [8] [µM] | AUC [9] | IC50 [9] [µM] | AUC [10] | IC50 [10] [µM] | IC50 [7] [µM] |
| --- | --- | --- | --- | --- | --- | --- | --- | --- | --- | --- | --- | --- | --- | --- | --- | --- | --- | --- | --- | --- |
| A375 (melanoma, adherent) | 0.991 | > 20 | 0.99 | > 1 | 0.991 | > 10.2 | 0.623 | 0.653 | 0.895 | 8.37 | 0.777 | 3.32 | 0.438 | 0.961 | > 10 | – | – | – | – | – |
| A673 (rhabdomyosarcoma, adherent) | – | – | 0.989 | > 1 | 0.898 | > 10.2 | 0.988 | > 5.12 | – | – | 0.899 | > 10 | 0.548 | 0.989 | > 10 | 0.984 | > 1 | 0.978 | > 20 | 333 |
| BT-474 (breast, adherent) | 0.444 | 0.863 | 0.984 | > 1 | 0.936 | > 10.2 | 0.947 | > 5.12 | 0.984 | > 10 | 0.851 | 9.15 | 0.947 | 0.654 | 1.77 | – | – | 0.972 | > 20 | > 4000 |
| H2722 (mesothelioma, adherent) | 0.797 | 11.6 | 0.982 | > 1 | 0.822 | 7.57 | 0.98 | > 5.12 | 0.984 | > 10 | 0.925 | > 10 | 0.606 | 0.952 | > 10 | – | – | 0.94 | > 20 | 517 |
| H2810 (mesothelioma, adherent) | – | – | 0.984 | > 1 | – | – | – | – | – | – | 0.943 | > 10 | – | 0.981 | > 10 | – | – | – | – | – |
| HCC2998 (large intestine, adherent) | 0.896 | > 20 | – | – | 0.924 | > 10.2 | 0.873 | 4.7 | 0.962 | > 10 | 0.953 | > 10 | 0.816 | 0.855 | 7.61 | – | – | 0.986 | > 20 | 2140 |
| HCT-15 (large intestine, adherent) | 0.7 | 4.74 | 0.985 | > 1 | 0.942 | > 10.2 | 0.817 | 3.08 | 0.987 | > 10 | 0.779 | 4.33 | 0.769 | 0.985 | > 10 | – | – | 0.951 | > 20 | 1600 |
| HCT-116 (large intestine, adherent) | 0.525 | 1.45 | 0.983 | > 1 | 0.576 | 1.02 | 0.558 | 0.458 | 0.952 | > 10 | 0.839 | 6.34 | 0.608 | 0.984 | > 10 | – | – | 0.895 | > 20 | 488 |
| HSC-4 (head and neck, adherent) | 0.578 | 2.2 | 0.971 | > 1 | 0.948 | > 10.2 | 0.951 | > 5.12 | 0.94 | > 10 | 0.793 | 6.37 | 0.552 | 0.97 | > 10 | – | – | 0.96 | > 20 | 364 |
| HT-29 (large intestine, adherent) | 0.771 | 7.62 | 0.986 | > 1 | 0.761 | 3.63 | 0.681 | 1.03 | 0.988 | > 10 | 0.96 | > 10 | 0.661 | 0.978 | > 10 | – | – | 0.957 | > 20 | 699 |
| IM-95 (stomach, adherent) | 0.549 | 1.72 | – | – | 0.861 | 9.62 | 0.872 | > 5.12 | – | – | 0.936 | > 10 | 0.523 | 0.984 | > 10 | – | – | 0.93 | > 20 | 291 |
| K-562 (chronic myeloid leukaemia, suspension) | – | – | – | – | – | – | – | – | – | – | 0.869 | 8.69 | 0.798 | 0.937 | > 10 | 0.698 | 0.22 | – | – | 1840 |
| LOXIMVI (melanoma, semi-adherent) | 0.768 | 6.71 | 0.989 | > 1 | 0.875 | 8.18 | 0.746 | 1.47 | – | – | 0.883 | 8.68 | 0.567 | 0.91 | > 10 | 0.315 | 0.0203 | 0.971 | > 20 | 372 |
| MDA-MB-175-VII (breast, adherent) | 0.547 | 1.71 | 0.986 | > 1 | 0.957 | > 10.2 | 0.918 | > 5.12 | 0.988 | > 10 | 0.913 | > 10 | 0.904 | 0.986 | > 10 | – | – | 0.987 | > 20 | > 4000 |
| MDA-MB-468 (breast, adherent) | 0.387 | 0.62 | 0.985 | > 1 | 0.931 | > 10.2 | 0.963 | > 5.12 | – | – | 0.946 | > 10 | 0.9 | 0.985 | > 10 | 0.978 | > 1 | 0.957 | > 20 | > 4000 |

IC50 is the fitted dose that halves viability relative to control wells, and lower means more sensitive; where the fit passes the top or lowest dose, that dose stands as a limit. AUC is the area under the same curve over the 256-fold range up to the top dose, as a fraction; it is 1 without any effect and falls as sensitivity rises. For part of these data: A top dose marked as inferred comes from the curve model; the source does not state it.
